target: human IL5 (human, UniProt P05113 20-134, biotinylated (IL5-biotin) in Examples 2, 5, 6, 9 and 11; site not stated); test: flow
Chain of UniProt P05113 (P05113 20-134): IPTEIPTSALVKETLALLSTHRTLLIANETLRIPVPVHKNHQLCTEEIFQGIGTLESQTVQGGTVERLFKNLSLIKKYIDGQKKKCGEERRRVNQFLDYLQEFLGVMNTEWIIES

Row | Binder | IC50 [µg/mL]
1 | HuNb21-HuNb66-Fc (antibody) EVQLQESGGGLVQPGGSLRLSCAASGYPYSGDYCMGWFRQAPGKEREGVAAFYTGGGSTYYADSVKGRFTISRDNSKNTLYLQMNSLRAEDTAVYYCAADPWSVYGGSCGVKDPNPKAFNYWGQGTLVTVSSGGGGSGGGGSGGGGSGGGGSEVQLQESGGGLVQPGGSLRLSCAASGYTVSSNMGWFRQAPGKEREGVAAIYPDGATYYADSVKGRFTISRDNSENTLYLQMNSLRAEDTAMYYCAADLAFNGLGTLALHGYWGQGTLVTVSS[gap - human IgG1 Fc] | 0.936
2 | HuNb21-HuNb21-Fc (antibody) EVQLQESGGGLVQPGGSLRLSCAASGYPYSGDYCMGWFRQAPGKEREGVAAFYTGGGSTYYADSVKGRFTISRDNSKNTLYLQMNSLRAEDTAVYYCAADPWSVYGGSCGVKDPNPKAFNYWGQGTLVTVSSGGGGSGGGGSGGGGSGGGGSEVQLQESGGGLVQPGGSLRLSCAASGYPYSGDYCMGWFRQAPGKEREGVAAFYTGGGSTYYADSVKGRFTISRDNSKNTLYLQMNSLRAEDTAVYYCAADPWSVYGGSCGVKDPNPKAFNYWGQGTLVTVSS[gap - human IgG1 Fc] | 2.05
3 | HuNb66-HuNb66-Fc (antibody) EVQLQESGGGLVQPGGSLRLSCAASGYTVSSNMGWFRQAPGKEREGVAAIYPDGATYYADSVKGRFTISRDNSENTLYLQMNSLRAEDTAMYYCAADLAFNGLGTLALHGYWGQGTLVTVSSGGGGSGGGGSGGGGSGGGGSEVQLQESGGGLVQPGGSLRLSCAASGYTVSSNMGWFRQAPGKEREGVAAIYPDGATYYADSVKGRFTISRDNSENTLYLQMNSLRAEDTAMYYCAADLAFNGLGTLALHGYWGQGTLVTVSS[gap - human IgG1 Fc] | 1.98
4 | HuNb66-HuNb21-Fc (antibody) EVQLQESGGGLVQPGGSLRLSCAASGYTVSSNMGWFRQAPGKEREGVAAIYPDGATYYADSVKGRFTISRDNSENTLYLQMNSLRAEDTAMYYCAADLAFNGLGTLALHGYWGQGTLVTVSSGGGGSGGGGSGGGGSGGGGSEVQLQESGGGLVQPGGSLRLSCAASGYPYSGDYCMGWFRQAPGKEREGVAAFYTGGGSTYYADSVKGRFTISRDNSKNTLYLQMNSLRAEDTAVYYCAADPWSVYGGSCGVKDPNPKAFNYWGQGTLVTVSS[gap - human IgG1 Fc] | 0.893
